Reference: EPA's CvTdb concentration-time database
The source gives many values for each of these; only a part stands here.

Tests used:
[1] = test system: Rat; assay: concentration in brain after dosing; conditions: 1.5 h; dosed: 2-Methyltetrahydrofuran; 10 mg/kg; iv; Female; F344
[2] = test system: Rat; assay: concentration in brain after dosing; conditions: 10 min; dosed: 2-Methyltetrahydrofuran; 30 mg/kg; oral; Female; F344
[3] = test system: Rat; assay: concentration in plasma after dosing; conditions: 0.25 h; dosed: 2-Methyltetrahydrofuran; 10 mg/kg; oral; Female; F344
[4] = test system: Rat; assay: concentration in brain after dosing; conditions: 3 h; dosed: 2-Methyltetrahydrofuran; 30 mg/kg; oral; Male; F344
[5] = test system: Rat; assay: concentration in plasma after dosing; conditions: 8 h; dosed: 2-Methyltetrahydrofuran; 400 mg/kg; oral; Female; Harlan Sprague Dawley
[6] = test system: Rat; assay: concentration in plasma after dosing; conditions: 1.5 h; dosed: 2-Methyltetrahydrofuran; 30 mg/kg; oral; Male; F344
[7] = test system: Rat; assay: concentration in plasma after dosing; conditions: 20 min; dosed: 2-Methyltetrahydrofuran; 10 mg/kg; iv; Female; F344
[8] = test system: Rat; assay: concentration in brain after dosing; conditions: 6 h; dosed: 2-Methyltetrahydrofuran; 400 mg/kg; oral; Male; F344
[9] = test system: Rat; assay: concentration in brain after dosing; conditions: 3 h; dosed: 2-Methyltetrahydrofuran; 10 mg/kg; iv; Female; F344
[10] = test system: Rat; assay: concentration in brain after dosing; conditions: 1.5 h; dosed: 2-Methyltetrahydrofuran; 30 mg/kg; oral; Male; F344
[11] = test system: Rat; assay: concentration in brain after dosing; conditions: 8 min; dosed: 2-Methyltetrahydrofuran; 30 mg/kg; oral; Male; F344
[12] = test system: Rat; assay: concentration in plasma after dosing; conditions: 2.5 h; dosed: 2-Methyltetrahydrofuran; 10 mg/kg; oral; Female; F344
[13] = test system: Rat; assay: concentration in plasma after dosing; conditions: 10 min; dosed: 2-Methyltetrahydrofuran; 400 mg/kg; oral; Female; Harlan Sprague Dawley
[14] = test system: Rat; assay: concentration in brain after dosing; conditions: 0.25 h; dosed: 2-Methyltetrahydrofuran; 10 mg/kg; oral; Male; F344
[15] = test system: Rat; assay: concentration in plasma after dosing; conditions: 2 h; dosed: 2-Methyltetrahydrofuran; 10 mg/kg; iv; Female; F344
[16] = test system: Rat; assay: concentration in plasma after dosing; conditions: 0.5 h; dosed: 2-Methyltetrahydrofuran; 10 mg/kg; oral; Male; F344
[17] = test system: Rat; assay: concentration in brain after dosing; conditions: 1.5 h; dosed: 2-Methyltetrahydrofuran; 30 mg/kg; oral; Male; F344; remark: listed apart in the source
[18] = test system: Rat; assay: concentration in plasma after dosing; conditions: 2 min; dosed: 2-Methyltetrahydrofuran; 30 mg/kg; oral; Male; F344
[19] = test system: Rat; assay: concentration in plasma after dosing; conditions: 0.25 h; dosed: 2-Methyltetrahydrofuran; 10 mg/kg; iv; Female; F344
[20] = test system: Rat; assay: concentration in brain after dosing; conditions: 5 min; dosed: 2-Methyltetrahydrofuran; 100 mg/kg; oral; Female; Harlan Sprague Dawley
[21] = test system: Rat; assay: concentration in plasma after dosing; conditions: 2 min; dosed: Bromochloroacetic acid; 10 mg/kg; iv; Male; F344
[22] = test system: Rat; assay: concentration in plasma after dosing; conditions: 40 min; dosed: Bromochloroacetic acid; 10 mg/kg; iv; Male; F344
[23] = test system: Rat; assay: concentration in plasma after dosing; conditions: dosed: Bromochloroacetic acid, 100 mg/kg, oral, Male, F344
[24] = test system: Rat; assay: concentration in plasma after dosing; conditions: dosed: Bromochloroacetic acid, 100 mg/kg, oral, Female, F344
[25] = test system: Rat; assay: concentration in plasma after dosing; conditions: dosed: Fluorotelomer alcohol 8+2, 40 mg/kg, oral, Female, Harlan Sprague Dawley
[26] = test system: Rat; assay: concentration in plasma after dosing; conditions: dosed: Fluorotelomer alcohol 8+2, 80 mg/kg, oral, Female, Harlan Sprague Dawley
[27] = test system: Rat; assay: concentration in plasma after dosing; conditions: 0.5 h; dosed: Fluorotelomer alcohol 8+2; 80 mg/kg; oral; Female; Harlan Sprague Dawley
[28] = test system: Rat; assay: concentration in plasma after dosing; conditions: dosed: Fluorotelomer alcohol 8+2, 48 mg/kg, oral, Male, Harlan Sprague Dawley
[29] = test system: Rat; assay: concentration in plasma after dosing; conditions: dosed: Formamide, 36 mg/kg, oral, Female, Harlan Sprague Dawley
[30] = test system: Rat; assay: concentration in plasma after dosing; conditions: dosed: Formamide, 30 mg/kg, iv, Female, F344
[31] = test system: Rat; assay: concentration in plasma after dosing; conditions: dosed: Formamide, 36 mg/kg, oral, Female, Harlan Sprague Dawley; remark: listed apart in the source
[32] = test system: Rat; assay: concentration in plasma after dosing; conditions: dosed: Formamide, 36 mg/kg, oral, Female, Harlan Sprague Dawley; remark: listed apart in the source
[33] = test system: Rat; assay: concentration in plasma after dosing; conditions: 2 min; dosed: Pyridine; 50 mg/kg; oral; Male; Harlan Sprague Dawley
[34] = test system: Rat; assay: concentration in plasma after dosing; conditions: 10 min; dosed: Pyridine; 200 mg/kg; oral; Female; F344
[35] = test system: Rat; assay: concentration in plasma after dosing; conditions: 2 h; dosed: Pyridine; 200 mg/kg; oral; Female; Harlan Sprague Dawley
[36] = test system: Rat; assay: concentration in plasma after dosing; conditions: 20 min; dosed: Pyridine; 50 mg/kg; oral; Female; F344
[37] = test system: Rat; assay: concentration in plasma after dosing; conditions: 2 min; dosed: Pyridine; 50 mg/kg; oral; Female; F344
[38] = test system: Rat; assay: concentration in plasma after dosing; conditions: dosed: Pyridine, 5 mg/kg, iv, Male, F344

Compound CC1CCCO1 (stereo not drawn) [2-Methyltetrahydrofuran] has a concentration in brain [1] of 0.26 µg/g, a concentration in brain [2] of 11.9 µg/g and a concentration in plasma [3] of 3410 ng/mL. For the same compound, the concentration in brain [4] was 0.549 µg/g, the concentration in plasma [5] was 68000 ng/mL and the concentration in plasma [6] was 15600 ng/mL. The concentration in plasma [7] was 6380 ng/mL, the concentration in brain [8] was 71.2 µg/g and the concentration in brain [9] was 0.0557 µg/g. It also gave a concentration in brain [10] of 7.32 µg/g, a concentration in brain [11] of 15.8 µg/g and a concentration in plasma [12] of 72.9 ng/mL. For the same compound, the concentration in plasma [13] was 226000 ng/mL, the concentration in brain [14] was 4.11 µg/g and the concentration in plasma [15] was 130 ng/mL. For the same compound, the concentration in plasma [16] was 4920 ng/mL, the concentration in brain [17] was 5.5 µg/g and the concentration in plasma [18] was 1400 ng/mL. The concentration in plasma [19] was 7240 ng/mL and the concentration in brain [20] was 60.1 µg/g.
Compound O=C(O)C(Cl)Br (stereo not drawn) [Bromochloroacetic acid] has a concentration in plasma [21] of 22600 ng/mL, a concentration in plasma [22] of 133 ng/mL and a concentration in plasma ([23]; 20 min) of 23400 ng/mL. It also gave a concentration in plasma ([23]; 7 h) of 1320 ng/mL, a concentration in plasma ([24]; 10 min) of 8610 ng/mL and a concentration in plasma ([24]; 4.5 h) of 2950 ng/mL.
OCCC(F)(F)C(F)(F)C(F)(F)C(F)(F)C(F)(F)C(F)(F)C(F)(F)C(F)(F)F [Fluorotelomer alcohol 8+2] was tested, and the concentration in plasma ([25]; 0.25 h) was 166 ng/mL, the concentration in plasma ([25]; 6 h) was 103 ng/mL and the concentration in plasma ([26]; 0.75 h) was 690 ng/mL. It also gave a concentration in plasma ([26]; 48 h) of 1.87 ng/mL, a concentration in plasma [27] of 544 ng/mL and a concentration in plasma ([28]; 5 min) of 1.26 ng/mL. For the same compound, the concentration in plasma ([28]; 3 h) was 430 ng/mL.
Work on NC=O [Formamide] yielded a concentration in plasma ([29]; 1 h) of 50300 ng/mL, a concentration in plasma ([29]; 72 h) of 2500 ng/mL and a concentration in plasma ([30]; 0.25 h) of 39800 ng/mL. It also gave a concentration in plasma ([30]; 24 h) of 5400 ng/mL, a concentration in plasma ([31]; 1 h) of 50700 ng/mL and a concentration in plasma ([31]; 72 h) of 2200 ng/mL. The concentration in plasma ([32]; 0.25 h) was 25800 ng/mL and the concentration in plasma ([32]; 5 h) was 48400 ng/mL.
In the case of c1ccncc1 [Pyridine], the concentration in plasma [33] is reported as 25000 ng/mL, the concentration in plasma [34] is reported as 60500 ng/mL and the concentration in plasma [35] is reported as 74100 ng/mL. For the same compound, the concentration in plasma [36] was 40900 ng/mL, the concentration in plasma [37] was 20200 ng/mL and the concentration in plasma ([38]; 3 h) was 2550 ng/mL. It also gave a concentration in plasma ([38]; 10 h) of 81.3 ng/mL.
